In all, about 48,000 compounds went through this assay and about 1,200 (2.5%) were called active. Inconclusive results (about 2%) are left out.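 The calls were made as follows: active = activation of at least 60% and not above a set upper limit (about 1 call in 100 departs from these limits); inconclusive = activation of 40% to 60%, or above that upper limit; inactive = activation under 40%.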 This is one part of the list.
Target: Probable G-protein coupled receptor 32 (Homo sapiens) (UniProt O75388)
Test: qHTS for Agonists of Human Resolvin D1 Receptor DRV1; also: 0% is about no effect
Conditions: CHO-K1 GPR32 beta-arrestin PathHunter luminescence, 90 min; at 76.9 µM; active compounds read high; zero percent set by DMSO-only wells
Procedure, shortened: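 Agonism was scored as beta-arrestin recruitment to ProLink-fused GPR32 in stably transfected CHO-K1 cells, giving a chemiluminescent beta-Gal signal; compounds were incubated 90 min at 37 °C.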

Sequence of UniProt O75388 (O75388 whole entry, looked up): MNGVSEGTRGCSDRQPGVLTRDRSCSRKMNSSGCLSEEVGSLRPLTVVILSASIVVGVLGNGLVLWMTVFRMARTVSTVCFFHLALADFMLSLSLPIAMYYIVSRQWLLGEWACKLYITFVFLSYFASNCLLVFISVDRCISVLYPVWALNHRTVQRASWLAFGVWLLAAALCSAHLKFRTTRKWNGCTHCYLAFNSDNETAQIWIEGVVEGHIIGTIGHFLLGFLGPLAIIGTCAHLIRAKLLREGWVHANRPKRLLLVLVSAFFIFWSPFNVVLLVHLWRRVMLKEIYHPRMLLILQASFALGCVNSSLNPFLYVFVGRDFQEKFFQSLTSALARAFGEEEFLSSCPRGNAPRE

activation, inactive:
Cc1nn(C)c2c1c(C(F)(F)F)cc(=O)n2CC(=O)Nc1ccc(F)cc1F -5.49%
Cc1nnc(N2CCC(C(=O)NC3CCC(C)CC3)CC2)c2nn(-c3ccc(Cl)cc3)c(C)c12 (stereo not given) -4.23%
Cc1ccccc1NC(=O)CSc1nccn1C 16.4%
Cc1cccc(N(C)C(=O)Cn2cnc3nc4c(cc3c2=O)CCCC4)c1 -5.78%
Cc1ccc(-n2ncc3c(Nc4ccc(Oc5ccccc5)cc4)ncnc32)cc1 19.1%
CCc1ccccc1NC(=O)N1CCN(Cc2nc3ccc(C)cc3o2)CC1 -19.4%
COCCn1c(C)cc(O)c(C(c2ccccc2)N2CCCCC2)c1=O (stereo not given) 26.4%
Cc1cccc(N2CCN(C(=O)c3cc4ccc5cccnc5c4[nH]3)CC2)c1C -18.2%
CC(C)Cc1nn2c(=O)cc(COC(=O)c3cccc(NC(=O)c4ccccc4)c3)nc2s1 -8.8%
COc1ccc(NC(=O)c2cc(C3CC3)nc3c2c(C)nn3-c2ccccc2)c(OC)c1 -9.26%
CCCN(CCC)CCNC(=O)c1cc2c(=O)oc3ccc(C)cc3c2s1 -1.42%
Cc1c(C(=O)Nc2cccc(C(F)(F)F)c2)sc2nc3n(c(=O)c12)CCC3 12.8%
Cc1cccc(Cn2cc3c(=O)n(CC(=O)Nc4cccc(C)c4C)nc-3c3cc(F)ccc32)c1 -15.3%
CCOCCCNC(=O)Cn1ncc2c([nH]c3ccccc32)c1=O -0.971%
CCOc1ccc(/C=C/c2nc(C#N)c(NCc3ccc(OC)cc3)o2)cc1 6.15%
Cc1noc(C)c1S(=O)(=O)N(CC(=O)Nc1ccc(C(F)(F)F)cc1)c1ccc(C(C)C)cc1 10.2%
Clc1ccccc1CNCCCSc1nnnn1-c1ccccc1 -14.3%
CCN(CC)S(=O)(=O)c1ccc2c(c1)N(CC(=O)Nc1cccc(C)c1C)C(=O)C1CCCN21 (stereo not given) -12.8%
CCOC(=O)N1CCN(Cc2nc3cc(NC(=O)CC(C)C)ccc3n2C(C)C)CC1 -8.32%
O=C(NCc1ccc2c(c1)CCN2C(=O)c1ccc(F)cc1)c1c(F)cccc1F -13%
COc1cccc(-c2noc(-c3cc4ccccc4oc3=O)n2)c1OC 7.27%
O=C(CCCN1CCC(O)(c2ccc(Cl)cc2)CC1)c1ccc(F)cc1 -1.52%
Cc1ccc(NC(=O)CCN2C(=O)c3ccccc3Sc3ncccc32)cc1 -25.6%
COc1ccc(C)cc1NC(=O)CSc1ncc2c(n1)-c1ccc(Cl)cc1N(Cc1ccccc1)S2(=O)=O 3.24%
Nc1nonc1-c1nc2ccccc2n1CC(=O)Nc1cccc(C(F)(F)F)c1 17.2%
CCOc1ccccc1NC(=O)CSc1cn(CC(=O)N2CCCCCC2)c2ccccc12 -10.4%
COc1cc(OC)c(NC(=O)C(CC(C)C)N2Cc3ccccc3C2=O)cc1Cl (stereo not given) -31.4%
CC1=C(C(=O)Nc2ccccc2)C(c2ccc(F)cc2)n2nc(SCc3cc(C)ccc3C)nc2N1 (stereo not given) -1.43%
CCC(C(=O)NCCc1ccc(OC)c(OC)c1)n1nc(C)c2sc3ccccc3c2c1=O (stereo not given) -15%
Cc1cc(C)cc(-n2ccn3cnnc3c2=O)c1 8.65%
Cc1ccc(OCC(=O)OCc2cc(=O)n3nc(C4CC4)sc3n2)cc1C -1.22%
CC(C)(C)C1CCc2c(sc(NC(=O)c3cc(-c4ccc(F)cc4)on3)c2C#N)C1 (stereo not given) 3.21%
CCCN(c1ccccc1F)S(=O)(=O)c1cc(-c2cc(C)no2)ccc1C -27.7%
COc1ccc(C)cc1NC(=O)Cn1c(=O)oc2cc(S(=O)(=O)N3CCCCCC3)ccc21 -6.1%
CCc1ccc2occ(CC(=O)Nc3c(C(=O)c4ccc(F)cc4)oc4ccccc34)c2c1 3.79%
CSc1cccc(Nc2cc(C(=O)NC3CCCCC3)c3ccccc3n2)c1 -18.9%
CCCCCCSc1nc(N)c2c3c(sc2n1)CCCC3C (stereo not given) -19.3%
Cn1nc(-c2ccccc2)c(-c2ccccc2)c(C(=O)Nc2ccccc2C(N)=O)c1=O -12.5%
Cc1cc(C)cc(N2C(=O)CSC23C(=O)N(CC(N)=O)c2ccccc23)c1 (stereo not given) -3.78%
CN(C)c1ccc(-c2nc3ccc(Cl)cn3c2Nc2ccc3c(c2)OCCO3)cc1 -12.4%
CCCN(CCC)c1cc(C)nc2nc(-c3ccc(C(C)(C)C)cc3)nn12 -13.2%
Cc1ccc(C)c(N2CCN(C3(c4ccccc4)C(=O)c4ccccc4C3=O)CC2)c1 -28.8%
CCOCCCNC(=O)Cn1ncc2c([nH]c3ccc(C)cc32)c1=O -2.6%
COCCN(Cc1ccc(C)c(Br)c1)S(=O)(=O)c1ccc2[nH]c(=O)ccc2c1 -9.43%
CC(=O)N1CCc2cc(Br)cc(S(=O)(=O)CCC(=O)N3CCN(c4cccc(C)c4C)CC3)c21 1.74%
CCOC(=O)c1ccc(NC(=O)c2cc(=O)c3ccc(C)c(C)c3o2)cc1 -13.5%
NCC(=O)CCC(=O)O 10.5%
CCn1c(=O)c2sccc2n2c(CCCC(=O)Nc3ccc(Oc4ccccc4)cc3)nnc12 4.56%
O=C(Nc1ccc(Br)cc1)c1cc(S(=O)(=O)N2CCc3ccccc32)ccc1F -13.2%
CCOc1ccccc1CNC(=O)CN1C(=O)c2cccnc2Oc2ccc(C)cc21 -13.2%
CCN1C(=O)C2(c3ccccc31)c1c(oc3ccccc3c1=O)C(=O)N2CCOC (stereo not given) -15.7%
COc1ccc(-c2noc(CC(=O)N(C)c3cc(Cl)c(OC)cc3OC)n2)cc1 -12.5%
CCCCN(C)C(=O)c1ccc2c(c1)NC(=O)C(CC(C)C)N2 (stereo not given) -26.9%
COc1ccc(OC)c(NC(=O)N2CCC3(CC2)Oc2ccccc2C(=O)N3Cc2ccccc2F)c1 -20.8%
Cc1ccc(NC(=O)c2nc(S(C)(=O)=O)ncc2N(Cc2ccco2)Cc2ccco2)cc1 -27.6%
Cc1cc(C)cc(OCC(=O)N(Cc2ccco2)Cc2ccccc2Cl)c1 -21.4%
COc1ccc(NC(=O)CN2C(=O)C(=O)c3ccccc32)c(OC)c1 -55.9%
Cc1c(C(=O)Nc2ccccc2F)sc2nc3n(c(=O)c12)CCC3 0.727%
CN(Cc1ccccc1)c1nc2c(S(=O)(=O)c3ccccc3)nnn2c2ccsc12 -6.48%
Cc1ccc(S(=O)(=O)c2nnn3c2nc(NC2CCCCC2)c2sccc23)cc1C -25.4%
Cc1ccc(OCCSc2nc3ccccc3n2CCC(=O)O)cc1 -10.1%
Cc1ccc(-c2nc(-c3cccs3)c(-c3cccs3)[nH]2)cc1 -12%
COc1ccc(C)cc1-n1c(SCC(=O)NCc2ccco2)nc2c([nH]c3ccccc32)c1=O -23.4%
COc1ccc(CNC(=O)CCc2c(C)nc3c4cccnc4nn3c2C)cc1 -1.73%
COc1ccc(CC(=O)Nc2nnc3n2CCS3)cc1OC -1.68%
CCc1ccccc1NC(=O)Cn1nnc(C(=O)NCc2cccc(OC)c2)c1N -4.06%
Cc1ccc(NC(=O)Cn2c(=O)n(CC(=O)NCCc3ccccc3)c(=O)c3ccccc32)cc1 -3.56%
CC1CCc2nc3ncn(Cc4cccc(F)c4)c(=O)c3cc2C1 (stereo not given) -12.9%
CNC(=O)C1CCC(Cn2c(=O)c3sccc3n(CC(=O)Nc3ccccc3)c2=O)CC1 (stereo not given) -1.38%
O=C(Nc1ncc(Cc2ccccc2Cl)s1)c1ccc2c(c1)CC(c1ccccc1)OC2=O (stereo not given) 1.91%
CCCCN(CC)CCCNC(=O)c1nn(-c2ccc(OC)cc2)c(=O)c2c1c1ccccc1n2C -2.83%
Cc1ccc(CCNC(=O)CCCn2c(=O)c3cccn3c3ccc(F)cc32)cc1 -5.91%
CCCCN(CC)CCCNC(=O)c1sc2nc3n(c(=O)c2c1C)CCCCC3 -1.18%
COCCNC(=O)c1cc(-c2cccc(Cl)c2)on1 -2.41%
O=C(CN1C(=O)COc2ccc(Cl)cc21)Nc1cccc(C(=O)O)c1 45.4%
Cc1ccc(C)c(N2CCN(C(=O)NCc3noc4ccccc34)CC2)c1 -5.43%
COC(=O)c1ccc2c(c1)N(CC(=O)Nc1ccc(C)c(C)c1)C(=O)c1ccccc1S2 -13.7%
CCS(=O)(=O)N1CCc2cc(C(=O)Nc3cc(C)cc(C)c3)ccc21 -6.03%
Cc1cc2oc(C(=O)Nc3sc4c(c3C(=O)NCC3CCCO3)CCCC4)cc(=O)c2cc1C (stereo not given) -2.41%
Cc1ccc2nc(Nc3cccc(C(F)(F)F)c3)c3nnnn3c2c1 -10.2%
Cn1c(=O)c2c(-c3ccc(Cl)cc3)ccnc2n(C)c1=O 25.2%
O=S(=O)(NCC(c1ccco1)N1CCN(c2ccc(F)cc2)CC1)c1cc(F)ccc1F (stereo not given) -26.3%
CCc1c(C)sc(NC(=O)c2cc(-c3ccc(OC)c(OC)c3)on2)c1C#N -9.82%
COc1ccc(OC)c(CCNc2nc3cc(OC)c(OC)cc3c3nc(-c4cccnc4)nn23)c1 -1.46%
CCCCN(CC)CCNC(=O)CN1C(=O)COc2ccc(S(=O)(=O)N3CCOCC3)cc21 -7.78%

— PubChem BioAssay AID1346428 (National Center for Advancing Translational Sciences (NCATS), 2018)
